Source: the supplement of paper PMC9151546
Single values are uncertain, as repeats are few or missing.

Legend:
CHO-K1 [1] = assay: micronucleus frequency (% of nucleated events); higher = more micronuclei (genotoxic)
CHO-K1 [2] = assay: hypodiploid nuclei frequency (% of nucleated events); higher = more hypodiploid events (aneugenic)
Description: (§1)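 Flow-cytometric in vitro micronucleus assay (Litron MicroFlow) in CHO-K1 cells in 96-well plates, 19 concentrations (4.5-200 µM, n=1 per concentration). Without S9, cells were exposed for 24 h and sampled at 48 h. With Aroclor 1254-induced rat liver S9, cells were exposed for 3-4 h and sampled at 27-28 h. Read-outs are %MN and %hypodiploid nuclei relative to nucleated events, and relative survival as the nuclei-to-bead ratio versus the 1% DMSO vehicle control (x100).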

CHO-K1 [3] = assay: relative survival (nuclei to bead ratio vs DMSO control) (% of vehicle control); higher = more surviving cells
Description: as §1
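Throughout, for hypodiploid nuclei frequency (% of nucleated events): hypodiploid nuclei gated on a flow cytometer with 488 nm excitation after SYTOX Green staining, cultures at 37 °C, positive controls vinblastine without S9 and cyclophosphamide with S9.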
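Throughout, for micronucleus frequency (% of nucleated events): cells lysed with nuclei stained by SYTOX Green, then micronucleus-gated events counted against nucleated events by flow cytometry with 488 nm excitation.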
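Throughout, for relative survival (nuclei to bead ratio vs DMSO control): Lysed-cell nuclei stained with SYTOX Green and counted against counting beads by flow cytometry at 488 nm excitation, with vinblastine (no S9) and cyclophosphamide (plus S9) as positive controls.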

Oc1ccccc1O [Catechol]
Details	hypodiploid nuclei frequency, CHO-K1 [2] [%]	micronucleus frequency, CHO-K1 [1] [%]	relative survival, CHO-K1 [3]
concentration: 4.55 (µM), S9 metabolic activation: with S9, exposure time: 3-4 hours	0.36	1.52	115
concentration: 4.55 (µM), S9 metabolic activation: without S9, exposure time: 24 hours	0.28	2.22	143
concentration: 5.69 (µM), S9 metabolic activation: with S9, exposure time: 3-4 hours	0.34	1.06	108
concentration: 5.69 (µM), S9 metabolic activation: without S9, exposure time: 24 hours	0.54	1.16	122
concentration: 7.11 (µM), S9 metabolic activation: with S9, exposure time: 3-4 hours	0.2	0.94	101
concentration: 7.11 (µM), S9 metabolic activation: without S9, exposure time: 24 hours	0.5	1.78	133
concentration: 8.88 (µM), S9 metabolic activation: with S9, exposure time: 3-4 hours	0.4	1.16	97.7
concentration: 8.88 (µM), S9 metabolic activation: without S9, exposure time: 24 hours	0.76	1.5	145
concentration: 11.1 (µM), S9 metabolic activation: with S9, exposure time: 3-4 hours	0.1	1.26	120
concentration: 11.1 (µM), S9 metabolic activation: without S9, exposure time: 24 hours	0.44	1.46	108
concentration: 13.9 (µM), S9 metabolic activation: with S9, exposure time: 3-4 hours	0.28	0.92	117
concentration: 13.9 (µM), S9 metabolic activation: without S9, exposure time: 24 hours	0.42	2.3	146
concentration: 17.4 (µM), S9 metabolic activation: with S9, exposure time: 3-4 hours	0.16	0.9	91
concentration: 17.4 (µM), S9 metabolic activation: without S9, exposure time: 24 hours	0.9	2.48	95.6
concentration: 21.7 (µM), S9 metabolic activation: with S9, exposure time: 3-4 hours	0.18	1.26	94.2
concentration: 21.7 (µM), S9 metabolic activation: without S9, exposure time: 24 hours	0.7	2.24	70.1
concentration: 27.1 (µM), S9 metabolic activation: with S9, exposure time: 3-4 hours	0.24	0.89	42.8
concentration: 27.1 (µM), S9 metabolic activation: without S9, exposure time: 24 hours	2.12	2.5	67.2
concentration: 33.9 (µM), S9 metabolic activation: with S9, exposure time: 3-4 hours	0.31	1.12	71.3
concentration: 33.9 (µM), S9 metabolic activation: without S9, exposure time: 24 hours	1.42	3.32	79
concentration: 42.4 (µM), S9 metabolic activation: with S9, exposure time: 3-4 hours	0.22	0.74	69.4
concentration: 42.4 (µM), S9 metabolic activation: without S9, exposure time: 24 hours	2.09	4.1	57.6
concentration: 53 (µM), S9 metabolic activation: with S9, exposure time: 3-4 hours	0.2	0.66	94
concentration: 53 (µM), S9 metabolic activation: without S9, exposure time: 24 hours	0.79	3.22	69.7
concentration: 66.2 (µM), S9 metabolic activation: with S9, exposure time: 3-4 hours	0.22	0.98	96.6
concentration: 66.2 (µM), S9 metabolic activation: without S9, exposure time: 24 hours	0.45	2.16	54.1
concentration: 82.7 (µM), S9 metabolic activation: with S9, exposure time: 3-4 hours	0.34	1.22	95.5
concentration: 82.7 (µM), S9 metabolic activation: without S9, exposure time: 24 hours	0.53	2.08	61
concentration: 103 (µM), S9 metabolic activation: with S9, exposure time: 3-4 hours	0.38	2.54	81.6
concentration: 103 (µM), S9 metabolic activation: without S9, exposure time: 24 hours	0.5	1.83	44.5
concentration: 129 (µM), S9 metabolic activation: with S9, exposure time: 3-4 hours	0.5	3.02	80.5
concentration: 129 (µM), S9 metabolic activation: without S9, exposure time: 24 hours	0.26	1.51	57.2
concentration: 162 (µM), S9 metabolic activation: with S9, exposure time: 3-4 hours	0.64	2.92	67.7
concentration: 162 (µM), S9 metabolic activation: without S9, exposure time: 24 hours	0.38	1.46	65.8
concentration: 202 (µM), S9 metabolic activation: with S9, exposure time: 3-4 hours	0.24	2.07	62.1
concentration: 202 (µM), S9 metabolic activation: without S9, exposure time: 24 hours	0.23	1.65	48

CCOP(=S)(OCC)Oc1nc(Cl)c(Cl)cc1Cl [Chlorpyrifos]
Details	hypodiploid nuclei frequency, CHO-K1 [2] [%]	micronucleus frequency, CHO-K1 [1] [%]	relative survival, CHO-K1 [3]
concentration: 4.5 (µM), S9 metabolic activation: with S9, exposure time: 3-4 hours	0.26	1.62	86.4
concentration: 4.5 (µM), S9 metabolic activation: without S9, exposure time: 24 hours	0.4	2.62	99.5
concentration: 5.63 (µM), S9 metabolic activation: with S9, exposure time: 3-4 hours	0.1	1.22	101
concentration: 5.63 (µM), S9 metabolic activation: without S9, exposure time: 24 hours	0.88	2.46	102
concentration: 7.04 (µM), S9 metabolic activation: with S9, exposure time: 3-4 hours	0.14	1.34	82.3
concentration: 7.04 (µM), S9 metabolic activation: without S9, exposure time: 24 hours	0.68	2.38	97
concentration: 8.8 (µM), S9 metabolic activation: with S9, exposure time: 3-4 hours	0.26	1.36	92.3
concentration: 8.8 (µM), S9 metabolic activation: without S9, exposure time: 24 hours	0.52	2.92	94.6
concentration: 11 (µM), S9 metabolic activation: with S9, exposure time: 3-4 hours	0.18	1.58	92.3
concentration: 11 (µM), S9 metabolic activation: without S9, exposure time: 24 hours	0.44	2.8	115
concentration: 13.7 (µM), S9 metabolic activation: with S9, exposure time: 3-4 hours	0.2	1.56	82.3
concentration: 13.7 (µM), S9 metabolic activation: without S9, exposure time: 24 hours	0.52	2.46	101
concentration: 17.2 (µM), S9 metabolic activation: with S9, exposure time: 3-4 hours	0.16	1.82	94.2
concentration: 17.2 (µM), S9 metabolic activation: without S9, exposure time: 24 hours	0.7	2.64	104
concentration: 21.5 (µM), S9 metabolic activation: with S9, exposure time: 3-4 hours	0.22	1.34	112
concentration: 21.5 (µM), S9 metabolic activation: without S9, exposure time: 24 hours	0.56	1.94	89.8
concentration: 26.8 (µM), S9 metabolic activation: with S9, exposure time: 3-4 hours	0.22	2.14	93.5
concentration: 26.8 (µM), S9 metabolic activation: without S9, exposure time: 24 hours	0.98	2.02	115
concentration: 33.6 (µM), S9 metabolic activation: with S9, exposure time: 3-4 hours	0.36	1.9	101
concentration: 33.6 (µM), S9 metabolic activation: without S9, exposure time: 24 hours	0.44	1.7	118
concentration: 41.9 (µM), S9 metabolic activation: with S9, exposure time: 3-4 hours	0.24	1.68	82.8
concentration: 41.9 (µM), S9 metabolic activation: without S9, exposure time: 24 hours	0.78	1.88	111
concentration: 52.4 (µM), S9 metabolic activation: with S9, exposure time: 3-4 hours	0.24	2.12	89.1
concentration: 52.4 (µM), S9 metabolic activation: without S9, exposure time: 24 hours	0.6	2.06	93.7
concentration: 65.5 (µM), S9 metabolic activation: with S9, exposure time: 3-4 hours	0.44	2.68	65.9
concentration: 65.5 (µM), S9 metabolic activation: without S9, exposure time: 24 hours	0.96	2.1	101
concentration: 81.9 (µM), S9 metabolic activation: with S9, exposure time: 3-4 hours	0.34	2.5	57.8
concentration: 81.9 (µM), S9 metabolic activation: without S9, exposure time: 24 hours	1.1	2.14	97.5
concentration: 102 (µM), S9 metabolic activation: with S9, exposure time: 3-4 hours	0.36	2.08	61.3
concentration: 102 (µM), S9 metabolic activation: without S9, exposure time: 24 hours	1.38	3.5	96
concentration: 128 (µM), S9 metabolic activation: with S9, exposure time: 3-4 hours	0.38	2.76	65
concentration: 128 (µM), S9 metabolic activation: without S9, exposure time: 24 hours	1.16	2.98	98
concentration: 160 (µM), S9 metabolic activation: with S9, exposure time: 3-4 hours	0.32	1.96	70.9
concentration: 160 (µM), S9 metabolic activation: without S9, exposure time: 24 hours	1.54	3	75.2
concentration: 200 (µM), S9 metabolic activation: with S9, exposure time: 3-4 hours	0.22	1.66	56
concentration: 200 (µM), S9 metabolic activation: without S9, exposure time: 24 hours	1.22	3.06	57.2
